Among the data in article PMC11387677 (The Journal of Biological Chemistry, 2024) are Kd values, retold here.

For this test, the target named is T1, NEIL1 wild-type (UniProt Q96FI4).
T1 construct: NEIL1 DNA glycosylase, wild-type gene in pET22b; called 44 kDa NEIL1; Expression vectors were a gift (Hegde and Mitra); also called WT NEIL1
Description: ITC; RPA or RPA domain titrated with NEIL1; Microcal VP, 25 °C, 50 mM HEPES pH 7.5, 150 mM NaCl, 10% glycerol, 0.5 mM TCEP; 50 uM in the cell, 150 uM in the syringe. Particulars: both partners purified. (In ITC the heat of successive injections is recorded.)

B1: RPA32C (domain or fragment)
chain: not shown
notes: C-terminal winged helix protein recruitment domain of the RPA32 subunit of replication protein A; 15N-enriched for the NMR experiments; also called RPA32C protein recruitment domain; winged helix domain (32C)
As for B1, the Kd was found to be 240 nM.

The Kd is the equilibrium constant for the complex coming apart. Higher therefore signals weaker binding.
